Our source for the z-score values is PubChem BioAssay AID488969 (Vanderbilt High Throughput Screening Facility, 2010).

The structures appear in SMILES notation. In all, about 110,000 compounds were measured (“z-score”: median about -0.1, highest 2% from about 2 on). This is one part of the list.

The target in this test is Metabotropic glutamate receptor 8 (Rattus norvegicus) (UniProt P70579). As to the kind of experiment: mGluR8 Gi/Go-coupled signaling modulation – cell-based, rat, thallium flux, HTS, primary screen (AID 488969). Conditions: HEK293 rat mGluR8, GIRK (G protein-gated inwardly rectifying potassium channel) thallium flux, FluoZin2; at 10 µM; stronger effect = higher value; submaximal glutamate (EC20) added with thallium.
Sequence of UniProt P70579 (P70579 whole entry, looked up): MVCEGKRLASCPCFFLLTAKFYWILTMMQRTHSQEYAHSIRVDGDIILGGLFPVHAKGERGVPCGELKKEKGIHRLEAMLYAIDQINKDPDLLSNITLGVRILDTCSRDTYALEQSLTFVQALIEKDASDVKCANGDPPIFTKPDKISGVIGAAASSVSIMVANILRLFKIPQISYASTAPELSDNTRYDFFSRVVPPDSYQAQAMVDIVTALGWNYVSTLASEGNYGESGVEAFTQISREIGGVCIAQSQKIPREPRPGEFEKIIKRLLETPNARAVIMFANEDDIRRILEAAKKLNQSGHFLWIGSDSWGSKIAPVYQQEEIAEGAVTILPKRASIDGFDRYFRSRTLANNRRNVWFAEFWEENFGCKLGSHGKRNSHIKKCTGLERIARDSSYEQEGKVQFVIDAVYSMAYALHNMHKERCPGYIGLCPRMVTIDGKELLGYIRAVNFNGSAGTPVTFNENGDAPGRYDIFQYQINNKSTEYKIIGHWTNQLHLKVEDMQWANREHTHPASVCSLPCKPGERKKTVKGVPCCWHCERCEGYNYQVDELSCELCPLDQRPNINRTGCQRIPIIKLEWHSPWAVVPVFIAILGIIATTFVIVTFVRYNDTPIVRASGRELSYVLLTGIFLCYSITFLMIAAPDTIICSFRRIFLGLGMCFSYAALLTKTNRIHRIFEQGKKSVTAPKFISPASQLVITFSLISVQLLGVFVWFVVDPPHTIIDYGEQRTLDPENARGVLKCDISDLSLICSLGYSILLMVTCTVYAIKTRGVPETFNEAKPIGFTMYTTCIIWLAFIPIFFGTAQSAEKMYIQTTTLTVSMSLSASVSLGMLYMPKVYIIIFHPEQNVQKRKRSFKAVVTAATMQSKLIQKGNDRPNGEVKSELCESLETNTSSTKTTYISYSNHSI
As for `O=C(NN1CCOCC1)C12CC3CC(CC(C3)C1)C2`, the z-score was -0.0267.

On to `C=CCn1c(COc2cccc3cccnc23)nnc1SCC(=O)O`, for which the z-score amounted to 0.239.

In the case of `C=CCNC(=O)/C(C#N)=C/c1ccccc1[N+](=O)[O-]`, the z-score was -0.384.

With `Cc1nc(/N=C\N(C)C)sc1C(=O)Nc1ccccc1`, the z-score is -0.0131.

For the compound `CN(C)S(=O)(=O)c1cccc(N=C2NN=C(c3ccccc3)CS2)c1`, the z-score is -0.38.

Regarding `COc1ccc(N(C)C(=S)Oc2ccc(C(=O)Nc3ccccc3)cc2)cc1`, the z-score was -0.0142.

For `CCC(=O)Nc1ccccc1C(=O)OCC(=O)c1ccc2ccccc2c1`, the z-score is -0.32.

With `O=C(CN1CCN(c2ccc(F)cc2)CC1)Nc1cccc(C(F)(F)F)c1`, the z-score was -0.781.

With `CN1CCN(/N=C/c2nc(-c3cccc([N+](=O)[O-])c3)n3ccccc23)CC1`, the z-score was -0.16.

`O=C(C1CCN(S(=O)(=O)N2CCOCC2)CC1)N1CCc2ccccc21` displayed a z-score of -1.37.

As for `Cc1cc(C)n(CC(O)COc2ccccc2[N+](=O)[O-])n1` (configuration not stated), the z-score was 0.324.

`COc1ccc(C2CC3(CC(C)(C)NC(=S)N3)Oc3cc(O)cc(C)c32)cc1` (configuration not stated) gave a z-score of 0.628.

For `CCOc1cc(C(=O)NCC2CCCO2)cc(OCC)c1OCC` (configuration not stated), the z-score worked out at 0.378.

As for `CC(C)Nc1nc(NC(C)C)nc(Oc2ccc(OCc3ccccc3)nn2)n1`, the z-score was -0.799.

In the case of `N#Cc1ccc2ccn(CC(=O)NCc3ccco3)c2c1`, the z-score is 0.27.

`COc1ccc(-c2nn(-c3ccccc3)cc2/C=C/C(=O)OCC(=O)Nc2ccc(C#N)cc2)cc1` registered a z-score of -0.478.

With `CCCC1S/C(=N/N=C/c2ccc(OC)cc2)N(Cc2ccc(OC)cc2)C1=O` (configuration not stated), the z-score is -0.125.

The compound `COc1ccccc1NC(=O)CSc1nnc(Cc2cccn2C)n1CCc1ccccc1` gave a z-score of -0.327.

The compound `COc1cc(C(=O)N2c3ccccc3CC2C)cc(OC)c1OC` (configuration not stated) had a z-score of 0.256.

Compound `CCN1C(=O)/C(=C\c2ccc3c(c2)OCO3)C(C(=O)OC)=C1C` showed a z-score of -0.35.

As to `Cc1nc(CS(=O)(=O)c2ccc(Cl)cc2)cc(Sc2ccc(Cl)cc2)n1`, the z-score was -1.64.

In turn, `Cc1ccc(NC(=O)CN2CCCN(S(=O)(=O)c3ccc(Br)s3)CC2)cc1` returned a z-score of -0.0863.

`Cc1cc(C)nc(SCCC(=O)Nc2ccccc2)n1` came in with a z-score of -0.0703.

In turn, `COc1ccc(NC2c3ncccc3C(=O)N2Cc2ccccc2)c(OC)c1` (configuration not stated) registered a z-score of -0.269.

`OCCN(CCO)c1ncnc2c1oc1ccc(Br)cc12` returned a z-score of 0.0286.

In turn, `CCc1nn(-c2cc(Oc3ccccc3)nc(-c3ccccc3)n2)c(N)c1C#N` registered a z-score of -0.209.

Take `O=C(N1CCOCC1)N1CCN(CC(O)COc2ccc3ccccc3c2)CC1` (configuration not stated): the z-score amounted to 0.248.

Consider `Cc1nc2ccccc2n1CCC(=O)Nc1cccc(F)c1`, for which the z-score is 0.464.

Compound `CCOC(=O)N1CCN(c2c(NCCOC)c(=O)c2=O)CC1` showed a z-score of 0.313.

Regarding `CS(=O)(=O)N1CCC(C(=O)NCCc2ccccc2)CC1`, the z-score was -0.116.

Consider `CCOc1ccc2nc(SCC(=O)N3CCN(C(=O)c4ccco4)CC3)sc2c1`, for which the z-score is -0.363.

With `O=C(Cn1cc(C(F)(F)F)cc(Cl)c1=O)Nc1cc(S(=O)(=O)N2CCOCC2)ccc1Cl`, the z-score was 0.197.

`Cc1ccccc1NS(=O)(=O)c1cc(C(=O)Nc2ccccc2-c2ccccc2)ccc1Cl` displayed a z-score of -0.372.

As for `O=C(CCSc1nc(-c2ccco2)cc(C(F)(F)F)n1)N1CCCc2ccccc21`, the z-score is -0.374.

In turn, `O=C(/C=C\c1ccc(-c2ccccc2)o1)c1ccccc1` yielded a z-score of -0.00488.

As to `COc1cc(C(=O)ON=C2C(C)=CC(=O)C=C2C)cc(OC)c1OC`, the z-score was -0.875.

`O=C(c1ccccc1-c1ccccc1)N1CCN(c2ccccn2)CC1` had a z-score of -0.0481.

The compound `c1ccc(COc2ccc(OCCCN3CCCC3)cc2)cc1` returned a z-score of 0.306.

With `CCN1C(=O)CSc2ccc(C(=O)NCCCN3CCOCC3)cc21`, the z-score is -0.281.

With `COc1ccc(C(=O)O/N=C(\C)c2ccccc2)cc1`, the z-score is -0.379.

In the case of `O=C(CSc1nc2ccccc2o1)Nc1nc(-c2ccccc2)c(-c2ccccc2)s1`, the z-score amounted to 0.488.

`O=C(Cc1cccs1)NCc1cccnc1`: the z-score is 0.742.

Turning to `COc1ccc(CC(=O)Nc2ccc3c(C)cc(=O)oc3c2)cc1OC`, the z-score is -0.246.

In turn, `CCS(=O)(=O)NCC(c1ccco1)N1CCN(c2ccccc2)CC1` (configuration not stated) yielded a z-score of 0.126.

Regarding `Cc1nnc(SCC(=O)N2c3ccccc3Sc3ccccc32)n1N`, the z-score is -0.267.

`Cc1nc(NCCCN2CCOCC2)c2oc3ccccc3c2n1` yielded a z-score of 0.46.

Turning to `Cc1ccc(-c2nnc(Nc3ccc4c(c3)OCO4)c3ccccc23)cc1S(=O)(=O)NC(C)C`, the z-score is -0.422.

In the case of `CC(C)(C)NC(=O)c1ccc(COc2ccccc2Br)o1`, the z-score was -0.0751.

As for `CS(=O)(=O)N1CCC(C(=O)N2CCc3ccccc3C2)CC1`, the z-score stood at 0.171.

In turn, `COc1ccc(CCNC(=O)COC(=O)C23CC4CC(CC(C4)C2)C3)cc1` returned a z-score of -0.22.

The compound `O=C1CC(c2ccccc2)Cc2nc3nc(C(F)(F)F)nn3cc21` (configuration not stated) returned a z-score of -0.168.

In the case of `C=C(C)CSC1=C(C#N)C(c2ccsc2)CC(=O)N1` (configuration not stated), the z-score was -0.0994.

Compound `Cn1cnnc1-c1cccc(NS(=O)(=O)c2ccc(N3CCCC3=O)cc2)c1` had a z-score of 0.152.

On to `O=C(COC(=O)c1ccc(-c2ccc([N+](=O)[O-])cc2)o1)NC(=O)NC12CC3CC(CC(C3)C1)C2`, for which the z-score was -0.435.

The compound `Cc1nnc(SCCn2c(N3CCC(C)CC3)nc3c2c(=O)n(C)c(=O)n3C)s1` gave a z-score of 0.292.

The compound `Cc1ccc(NC(=O)Nc2ccc3c(c2)N(C)C(=O)CS3)nc1` yielded a z-score of -0.0618.

Compound `Cc1ccccc1NC(=O)NCCCN1CCCC1` registered a z-score of -0.529.

In turn, `Cn1c(OCc2cccnc2)nc2c1c(=O)n(Cc1ccccc1)c(=O)n2C` displayed a z-score of 0.166.

`CCOC(=O)c1ccc(N(CC(=O)NC2CCCC2)C(=O)CNC(=O)c2ccco2)cc1` yielded a z-score of -0.0776.

Consider `O=C(N=C1c2ccccc2CN1c1cccc(Cl)c1)c1cccnc1`, for which the z-score is -0.697.

As to `Cc1ccc(/C=C2/SC(=O)N(CC(=O)N3CCOCC3)C2=O)s1`, the z-score was 0.0203.

On to `CC(C)n1c(SCC(=O)Nc2ccccc2N2CCOCC2)nc2c1c(=O)n(C)c(=O)n2C`, for which the z-score stood at 0.538.

Turning to `CCOc1ccc(C(=O)N2CCC(C(=O)c3ccc4c(c3)OCCO4)CC2)cc1`, the z-score is -1.29.

`COc1ccc(-c2csc(N3CCN(Cc4ccc5c(c4)OCO5)CC3)n2)cc1` returned a z-score of 0.743.

With `CC1=NN(c2ccccc2)C(=O)/C1=C/c1c(O)n(-c2ccc(F)cc2)[nH]c1=O`, the z-score is -0.636.

In turn, `O=[N+]([O-])c1cc2oc3c(c2c(C=NCc2ccncc2)c1O)CCCC3` displayed a z-score of -0.349.

Compound `Cc1ccc(/C=N\Nc2cn[nH]c(=O)c2Cl)cc1` registered a z-score of -0.0559.

`O=C(Nc1ccc(Br)cc1)C1CCCN1S(=O)(=O)c1cccs1` (configuration not stated) came in with a z-score of -0.34.

Take `CCOC(=O)C1=C(O)/C(=C/c2ccc(-c3ccccc3C(=O)O)o2)SC1=Nc1ccc(OC)cc1`: the z-score was -0.502.

`Cc1ccc(-c2nc3cc(NS(=O)(=O)c4ccc(C)cc4)ccc3o2)cc1` registered a z-score of 0.00214.

With `CC1CCN(c2ccc(C(=O)Nc3ccc4c(c3)OCO4)cc2[N+](=O)[O-])CC1`, the z-score is -0.237.

In turn, `CN1CCc2c(sc3c2C(=O)NC(/C=C/c2ccco2)N3)C1` (configuration not stated) gave a z-score of 0.79.

`CCOc1cc(NC(=S)NCc2ccco2)c(OCC)cc1NC(=O)CC(C)C` returned a z-score of -0.375.

For the compound `CCOc1cc(N2CCOCC2)c(OCC)cc1NC1=NCCCCC1`, the z-score came out at 0.251.

Compound `Cc1cc(C)c(C)c(S(=O)(=O)N2CCN(CC(=O)Nc3ccc([N+](=O)[O-])cc3)CC2)c1C` registered a z-score of -0.125.

`COc1cc(/C=C(\C#N)c2nc(-c3cc4ccccc4oc3=O)cs2)ccc1O` yielded a z-score of -2.33.

Regarding `NC(=O)c1ccc(N2CCCCC2)c(N2C(=O)C3C4C=CC(C4)C3C2=O)c1` (configuration not stated), the z-score is -0.9.

`CC(C)Cn1c(CN2CCN(c3ccccc3F)CC2)nc2c1c(=O)[nH]c(=O)n2C` came in with a z-score of -0.316.

`O=C(NCc1ccc2c(c1)OCO2)C1COc2ccccc2O1` (configuration not stated): the z-score worked out at 0.0341.

For `CON1C(=O)CN(C(C)=O)C1c1ccc(Cl)cc1Cl` (configuration not stated), the z-score is -0.162.

Take `Cc1noc(C)c1CSc1ncnc2ccccc12`: the z-score is -0.0473.

In turn, `Brc1ccc(/C=N/Nc2ncnc3c2cnn3Cc2ccccc2)cc1` showed a z-score of -0.22.

In turn, `CCCc1nc2scc(-c3ccc(C)cc3)c2c(=O)n1N` yielded a z-score of 0.144.

Regarding `Cc1oc2cc3oc(=O)c4c(c3cc2c1C)CCC4`, the z-score was -0.0605.

`COC(=O)c1cc(NS(=O)(=O)c2ccc(N3CCOCC3)c(N)c2)cc(C(=O)OC)c1` showed a z-score of -0.407.

In turn, `CCN(CC)CCCN1C(=O)C(O)=C(C(=O)c2cccs2)C1c1ccccn1` (configuration not stated) showed a z-score of -0.273.

`Cn1c(=O)c2c(nc(-c3ccccc3)n2C)n(Cc2ccccc2)c1=O` showed a z-score of -0.372.

`Cc1ccc(C(=O)NNC2=NCCC2)cc1` came in with a z-score of -0.0578.

For `Cc1ccc(C2Oc3ccccc3C3=C2C(c2cccs2)n2ncnc2N3)cc1` (configuration not stated), the z-score amounted to 0.24.

`CCC(C)(C(=O)NC1CCCC1)N(Cc1ccco1)C(=O)c1ccc2c(c1)OCO2` (configuration not stated) came in with a z-score of -0.0787.

Compound `CCOC(=O)N1CCN(C(=O)/C(=C/c2cccc3ccccc23)NC(=O)c2ccc(OC)cc2)CC1` returned a z-score of -0.241.

Consider `Cc1ccccc1N1C(=O)c2ccccc2N2C(=O)c3ccccc3C12` (configuration not stated), for which the z-score was -0.175.

`CN1c2ccccc2-c2nc3ccccc3n2C1c1cccs1` (configuration not stated) displayed a z-score of -0.32.

`CC(=O)Nc1nc2ccccc2n1CCN1CCOCC1` returned a z-score of 0.363.

On to `O=c1cc(-c2ccccc2)nc2n1Cc1ccccc1-2`, for which the z-score is -0.59.

In turn, `O=C(COc1ccc(F)cc1)N1CCC(c2ccccc2)C1` (configuration not stated) yielded a z-score of -0.364.

The compound `O=C(CN(Cc1ccccc1Cl)C(=O)c1ccc(CN2CCOCC2)o1)NCC1CCCO1` (configuration not stated) yielded a z-score of -0.0707.

Take `Cc1ccc(C)c(N(CC(=O)N/N=C/c2ccc(-c3ccc([N+](=O)[O-])cc3)o2)S(=O)(=O)c2ccccc2)c1`: the z-score is 1.49.

Regarding `N#CC(Cc1ccc(OC(F)F)cc1)c1nc2ccccc2[nH]1` (configuration not stated), the z-score turned out to be 0.023.

Compound `CCn1c(SCC(=O)N2CCN(c3ccccc3)CC2)nc2c(c1=O)SC(C)C2` (configuration not stated) gave a z-score of 0.538.

Compound `Cc1nc2ccccc2n1C1CC(=O)N(N(C)C)C1=O` (configuration not stated) yielded a z-score of -0.197.

In the case of `CCOc1cc(C)c(Cl)cc1S(=O)(=O)NC1CC(C)(C)NC(C)(C)C1`, the z-score is -0.0909.

In turn, `O=C(O)CCCCCNS(=O)(=O)c1cccc2c1C(=O)c1ccccc1C2=O` had a z-score of -0.121.

For the compound `O=C(CSC1=NC(=O)C(Cc2ccccc2)C(=O)N1)NC1CCCCC1` (configuration not stated), the z-score was found to be 0.139.

`COc1ccc(CCNC2CC(=O)N(CCc3ccccc3)C2=O)cc1` (configuration not stated): the z-score is -0.185.

Turning to `CNC(=O)COC(=O)c1cc(=O)[nH]c2ccccc12`, the z-score is -0.298.

For the compound `Cc1cc(/C=C(\C#N)C(=O)Nc2ccccc2)c(C)n1-c1ccc2c(c1)OCO2`, the z-score was -0.335.
